Assay results taken from PubChem BioAssay AID624296 (National Center for Advancing Translational Sciences (NCATS), 2012).
The whole screen tested about 350,000 compounds, of which about 9,900 (2.8%) were called active. Inconclusive results, whose numbers are uncertain, are shown with a selection of clear calls. Calls follow the shape of the dose curve; as a rule, active = well fitted activation curve with a large enough effect; inconclusive = small, poorly fitted or top-dose-only effect; inactive = no such curve, though single readings can be large or run the other way. No potency is given beside an inconclusive call; the fits are too rough.

Experiment: A quantitative high throughput screen for small molecules that induce DNA re-replication in MCF 10a normal breast cells. Also: nearly all actives have a fitted effect of over 50% in size.
Conditions: MCF 10A DNA re-replication, Hoechst nuclear intensity, 48 h; series mostly up to 46.1 µM
Potency is read from the fitted curve at half-maximal effect; tags tell the direction and shape of the fitted curve.

For Oc1ccccc1-c1nc(NCc2ccco2)c2ccccc2n1, which Potency is on record?
The Potency was inconclusive [activator, single point].

With COc1cccc(NC(=O)C2CCN(Cc3cnn(-c4ccccc4)c3-n3cccc3)CC2)c1 as the molecule, how does the Potency read?
The Potency was inconclusive [activator, single point].

For CCN(CC)c1ccc(NC(=O)c2cccc(F)c2)c(C)c1, which Potency is on record?
Its Potency is inconclusive [activator, partial curve].

For NC1=NCc2ccccc21, which Potency is on record?
The Potency was inconclusive [activator, single point].

For CC(=O)OC1CCC2(C)C(COc3ccc4ccc(=O)oc4c3)C(C)(O)CCC2C1(C)C (centres undefined), which Potency is on record?
The Potency was inconclusive [activator, single point].

Which Potency does the source give for N#CCCN1CCN(C(=S)c2ccc(-c3ccc(Cl)c(Cl)c3)o2)CC1 here?
Its Potency is inconclusive [activator, partial curve, poor fit].

For O=C(Cn1cccc1C(=O)c1ccccc1)NCc1ccc(Cl)cc1, which Potency is on record?
The Potency was inconclusive [activator, single point].

With COc1ccc(C(=O)Nc2ccccc2)cc1NC(=O)c1ccc([N+](=O)[O-])cc1 as the molecule, how does the Potency read?
The Potency was “inactive”.

For CCCCCOc1ccc(C(=O)CCN2CCOCC2)cc1, which Potency is on record?
The Potency was inconclusive [activator, single point].

Which Potency does the source give for COC(=O)[C@]12C(=O)C(C)=C(O)[C@@]1(C)C(C)=CC1[C@@]34CC[C@@H](OC(C)=O)C(C)(C)C3C(C[C@]12C)OC4=O (some centres undefined) here?
Its Potency is “inactive”.

Which Potency does the source give for N#CC(C#N)=C1C=CC=CN1/C(=C\c1ccco1)C(=O)c1ccc(Cl)cc1 here?
The Potency was active: 1.64 µM.

For CCOc1ccc(CCNC(=O)COC(=O)Cc2ccc(OC)c(OC)c2)cc1OCC, which Potency is on record?
The Potency was inconclusive [activator, single point].

Which Potency does the source give for COc1ccc(NC(=O)Nc2ccc(Cc3ccncc3)cc2)c(OC)c1 here?
The Potency was inconclusive [activator, single point].

With CC(C)(C)OC(=O)N[C@H](Cc1ccccc1)C(=O)N1CCC[C@@H]1C(=O)O as the molecule, how does the Potency read?
Its Potency is “inactive”.

For COc1ccc(CN2C(=O)C(C)Nc3ncnc(N4CCN(c5ccccn5)CC4)c32)cc1 (centres undefined), which Potency is on record?
Its Potency is “inactive”.

With CCC(C)NC(=O)c1ccc(N2CC3CC(C2)c2cccc(=O)n2C3)c(NC(=O)c2ccc(Br)o2)c1 (centres undefined) as the molecule, how does the Potency read?
The Potency was “inactive”.

With Cc1cc(C)cc(OCC(=O)N(C)CC(=O)Nc2ccc(Cl)c(C(F)(F)F)c2)c1 as the molecule, how does the Potency read?
The Potency was active: 6.51 µM.

For O=C(Cc1cccs1)NCc1cccc(Cl)c1, which Potency is on record?
The Potency was inconclusive [activator, single point].

For O=[N+]([O-])c1cccc(-c2nc3ccccc3s/c2=N/O)c1, which Potency is on record?
The Potency was inconclusive [activator, full curve, poor fit].

For CCCCOc1ccc(C(=O)N/N=C/c2ccc(OCCN3CCCCC3)c(OC)c2)cc1, which Potency is on record?
Its Potency is inconclusive [activator, single point].

With C[C@@H]1CN([C@H](C)CO)C(=O)c2cc(NC(=O)Cc3cn(C)c4ccccc34)ccc2O[C@H]1CN(C)S(=O)(=O)c1ccc(F)cc1 as the molecule, how does the Potency read?
The Potency was inconclusive [activator, partial curve, poor fit].

Which Potency does the source give for COc1ccc(OCC(O)Cn2c(=N)n(CCN3CCOCC3)c3ccccc32)cc1 (centres undefined) here?
Its Potency is “inactive”.

Which Potency does the source give for COc1cccc(Nc2ccc(N3CCCCC3)cc2)c1OC here?
Its Potency is inconclusive [activator, partial curve, poor fit].

With O=C(O)Cc1ccc(NC(=O)c2ccc(Cl)c(Cl)c2)cc1 as the molecule, how does the Potency read?
The Potency was “inactive”.

Which Potency does the source give for COc1ccc(C(NC(C)=O)c2cc(Cl)c3cccnc3c2O)cc1 (centres undefined) here?
The Potency was inconclusive [activator, single point].

With CCCN(CCC)S(=O)(=O)c1ccc(C(=O)N2CCC(=O)c3ccccc32)cc1 as the molecule, how does the Potency read?
The Potency was inconclusive [activator, single point].

Which Potency does the source give for C/C(=N\Nc1cc(-c2ccccc2)nc(-c2ccc(Br)cc2)n1)c1cccc(N)c1 here?
Its Potency is inconclusive [activator, single point].

Which Potency does the source give for COc1cc2c(cc1OC)C(c1ccc(-c3ccc(Cl)c(Cl)c3)o1)=NCC2 here?
The Potency was active: 2.31 µM.

With O=c1[nH]c(=S)[nH]c2sc3c(c12)CCCCCC3 as the molecule, how does the Potency read?
Its Potency is inconclusive [activator, single point].

With CCN1C(=O)/C(=C/c2ccc(N3CCCC3)cc2)NC1=S as the molecule, how does the Potency read?
Its Potency is inconclusive [activator, single point].

Which Potency does the source give for O=C(Nc1nnc(-c2ccc3c(c2)CCCC3)o1)C1COc2ccccc2O1 (centres undefined) here?
Its Potency is “inactive”.

For CCOc1cccc(/C=C(/C#N)c2nc3ccccc3[nH]2)c1OCC(=O)O, which Potency is on record?
Its Potency is “inactive”.

Which Potency does the source give for O=C(COC(=O)C1(c2ccccc2F)CCCC1)Nc1ncc(C(F)(F)F)cc1Cl here?
Its Potency is inconclusive [activator, single point].

Which Potency does the source give for COc1ccc(Nc2nnc(SCC(=O)NC3CCS(=O)(=O)C3)s2)cc1 (centres undefined) here?
The Potency was “inactive”.

With CC(C)c1ccc(/C=N/NC(=O)c2ccccc2Cl)cc1 as the molecule, how does the Potency read?
Its Potency is active: 5.8 µM.

For CCOC(=O)C1=CNS(=O)(=O)NC1c1ccccc1 (centres undefined), which Potency is on record?
The Potency was “inactive”.

Which Potency does the source give for O=C(N/N=C/c1cc([N+](=O)[O-])ccc1O)c1cccc(N2CCCC2=O)c1 here?
Its Potency is “inactive”.

For CCCn1c(NC(=O)c2ccc([N+](=O)[O-])o2)nc2ccccc21, which Potency is on record?
Its Potency is inconclusive [activator, single point].

For CCOc1cc(C(=O)Nc2cccc3ncccc23)cc(OCC)c1OCC, which Potency is on record?
The Potency was “inactive”.

For COCc1cc(C)nc2sc(C(=O)Nc3nccs3)c(N)c12, which Potency is on record?
Its Potency is active: 16.4 µM.

Which Potency does the source give for Cc1cc(NC(=O)c2ccccc2F)nc2c1c(=O)oc1ccccc12 here?
Its Potency is inconclusive [activator, single point].

Which Potency does the source give for NS(=O)(=O)c1ccc(NCc2ccccc2OCc2ccc(F)cc2)cc1 here?
The Potency was “inactive”.

For CCOC(=O)C1C(=O)OC(C)(C)C1C(C)C(=O)c1ccc(C)cc1C (centres undefined), which Potency is on record?
Its Potency is “inactive”.

For CCC1(c2ccc(F)cc2)NC(=O)N(CC(=O)Nc2cc(C)on2)C1=O (centres undefined), which Potency is on record?
The Potency was “inactive”.

For CC(C)(C)c1ccc(S(=O)(=O)NCC(=O)Nc2ccc(-c3nc4ccccc4s3)cc2)cc1, which Potency is on record?
The Potency was inconclusive [activator, partial curve].

With Fc1ccc2nc(-c3ccccc3)nc(SCc3nnc(-c4ccccc4)o3)c2c1 as the molecule, how does the Potency read?
Its Potency is inconclusive [activator, partial curve, poor fit].

For Cc1ccc(OCC(O)Cn2c3ccccc3c3ccccc32)cc1 (centres undefined), which Potency is on record?
Its Potency is “inactive”.

For COC(=O)C1(CC2CC(c3ccc(Cl)cc3)=NO2)CCN(C(=O)OC(C)(C)C)CC1 (centres undefined), which Potency is on record?
Its Potency is inconclusive [activator, full curve, poor fit].

Which Potency does the source give for CN1C(=O)C(c2nnc(Nc3cccc4ccccc34)s2)C2CC1(C)Oc1ccccc12 (centres undefined) here?
The Potency was inconclusive [activator, single point].

Which Potency does the source give for Cc1cc2ccccn2c1C(=O)c1ccccc1F here?
Its Potency is inconclusive [activator, single point].

For CC(C)(Oc1ccc(Cl)cc1)C(=O)NCC1CCCO1 (centres undefined), which Potency is on record?
The Potency was “inactive”.

With NC(=O)CN1C(=O)NC2(CCCc3ccccc32)C1=O (centres undefined) as the molecule, how does the Potency read?
Its Potency is “inactive”.

Which Potency does the source give for O=C(Nc1ccccc1Cl)c1cccc(COc2cc(Cl)ccc2Cl)c1 here?
Its Potency is inconclusive [activator, single point].

For CCC(c1nnc(SCc2nc3ccccc3s2)n1Cc1ccccc1)N(C)C (centres undefined), which Potency is on record?
The Potency was inconclusive [activator, single point].

For Cc1ccc(-c2csc3ncn(CC#N)c(=O)c23)cc1C, which Potency is on record?
The Potency was inconclusive [activator, single point].

With CCOc1ccc(N(C(C)C(=O)N2CCCC2)S(C)(=O)=O)cc1 (centres undefined) as the molecule, how does the Potency read?
Its Potency is “inactive”.

Which Potency does the source give for COC(=O)[C@@]1(C)[C@H]2C(=O)N(Cc3ccccc3)C(=O)[C@H]2[C@H]2CN=C(SCc3ccccc3)N21 here?
The Potency was inconclusive [activator, single point].

Which Potency does the source give for CCOC(=O)C(C)NC(=O)CCc1nnc2ccc(N3CCC(C)CC3)nn12 (centres undefined) here?
The Potency was active: 25.9 µM.

For COc1cc(/C=C2\SC(=Nc3ccccc3OC)NC2=O)ccc1O, which Potency is on record?
The Potency was active: 8.2 µM.

Which Potency does the source give for O=C1/C(=C\c2ccc(Br)cc2)SC(=S)N1NS(=O)(=O)c1ccccc1 here?
Its Potency is inconclusive [activator, partial curve, poor fit].

With Cc1ccccc1C(=O)Nc1ccnn1C1CCN(Cc2c(C)n(C)c3ccccc23)CC1 as the molecule, how does the Potency read?
The Potency was inconclusive [activator, partial curve, poor fit].

Which Potency does the source give for O=C(Nc1ccc(N2CCOCC2)c(Cl)c1)c1ccc([N+](=O)[O-])o1 here?
Its Potency is inconclusive [activator, partial curve, poor fit].

Which Potency does the source give for CCN(CC)S(=O)(=O)c1ccc(NC(=O)c2cc(-c3cccs3)nc3ccccc23)cc1 here?
The Potency was inconclusive [activator, partial curve, poor fit].

Which Potency does the source give for CCCCCNC1=CC(=O)CC(c2ccccc2)C1 (centres undefined) here?
The Potency was inconclusive [activator, single point].

With COC(=O)c1ccc(CN(c2ccc(C)cc2)S(=O)(=O)c2ccc3c(c2)OCCO3)o1 as the molecule, how does the Potency read?
The Potency was inconclusive [activator, single point].

Which Potency does the source give for Cc1cc(NC(=O)CCN2CCN(CCO)CC2)ccc1Br here?
The Potency was inconclusive [activator, partial curve, poor fit].

Which Potency does the source give for Cc1cccc(N2C(=O)CC(Sc3nc(C)c4c(n3)CCCC4)C2=O)c1 (centres undefined) here?
Its Potency is “inactive”.

For Oc1ccccc1Nc1nc(NCc2ccccc2)c2ccccc2n1, which Potency is on record?
The Potency was active: 16.4 µM.

For CC(C)c1ccc(CC(C)C2C3=C(CCCC3=O)OC3=C2C(=O)CCC3)cc1 (centres undefined), which Potency is on record?
The Potency was inconclusive [activator, single point].
